In the supplement of paper PMC3334620:
Over roughly 33,000 sequences, “E-score (-0.5 to 0.5)” has its median near -0.012; the highest 2% begin near 0.29. Some of the results follow.

target: T1, Ybr033w (UniProt P38073); test: PBM E-score (8-mer binding enrichment) (E-score (-0.5 to 0.5)); higher = stronger / more preferred TF binding; most listed sequences are background and not binding sites; settings: protein concentration: 200 nM; construct: GST-full length
T1 sequence: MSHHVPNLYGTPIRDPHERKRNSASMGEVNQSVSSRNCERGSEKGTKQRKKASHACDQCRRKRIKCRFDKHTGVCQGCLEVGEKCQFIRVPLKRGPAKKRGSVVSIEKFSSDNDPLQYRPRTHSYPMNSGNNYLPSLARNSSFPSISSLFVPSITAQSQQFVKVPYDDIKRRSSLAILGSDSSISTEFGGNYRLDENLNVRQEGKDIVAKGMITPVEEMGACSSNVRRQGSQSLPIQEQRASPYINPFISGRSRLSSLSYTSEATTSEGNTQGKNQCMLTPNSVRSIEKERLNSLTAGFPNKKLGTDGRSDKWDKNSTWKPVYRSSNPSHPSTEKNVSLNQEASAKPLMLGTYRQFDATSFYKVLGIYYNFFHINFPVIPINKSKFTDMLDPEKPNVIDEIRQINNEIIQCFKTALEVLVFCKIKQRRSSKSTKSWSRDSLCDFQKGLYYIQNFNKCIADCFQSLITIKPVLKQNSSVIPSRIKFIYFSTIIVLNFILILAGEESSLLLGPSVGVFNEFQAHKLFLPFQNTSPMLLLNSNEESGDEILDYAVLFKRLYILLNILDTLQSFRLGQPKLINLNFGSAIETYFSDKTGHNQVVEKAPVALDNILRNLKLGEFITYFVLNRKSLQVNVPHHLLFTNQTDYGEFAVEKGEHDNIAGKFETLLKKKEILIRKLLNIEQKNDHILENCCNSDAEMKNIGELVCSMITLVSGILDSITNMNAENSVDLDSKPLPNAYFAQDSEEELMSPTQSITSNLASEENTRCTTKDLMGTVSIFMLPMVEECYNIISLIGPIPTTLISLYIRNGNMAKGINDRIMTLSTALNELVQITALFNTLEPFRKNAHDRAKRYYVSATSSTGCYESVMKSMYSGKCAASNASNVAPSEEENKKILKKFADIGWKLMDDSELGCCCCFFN
Method: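 Universal 'all 10-mer' protein binding microarrays (Agilent AMADID 015681) probed with GST-tagged S. cerevisiae TFs (full-length or DBD) made by in vitro transcription/translation (PURExpress), about 100-200 nM. Bound TF was detected with fluorescent anti-GST. Each ungapped 8-mer (which stands for itself and its reverse complement) is scored by the PBM enrichment score (E-score), a modified Wilcoxon-Mann-Whitney statistic from -0.5 to +0.5, computed with the Universal PBM Analysis Suite. Scale: above 0.35 generally sequence-specific binding.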

| Sequence | PBM E-score |
| --- | --- |
| CGAGTCTC | -0.177 |
| GTTTATAA | 0.162 |
| CATAGTCA | 0.0728 |
| CAAGATTG | 0.141 |
| CCTGCAGG | -0.352 |
| ACCCGTGC | -0.254 |
| CACCCCTC | -0.157 |
| ATAACTAC | 0.112 |
| AGAAGAGG | -0.111 |
| CATTTTGA | 0.152 |
| CGCTTAAA | 0.00456 |
| CGACCCCG | -0.33 |
| AGACTACG | -0.182 |
| AAATATAG | 0.305 |
| GCATACAC | 0.00233 |
| GAGGCTCA | -0.271 |
| CTCCCAGC | -0.306 |
| CCTTTATC | -0.00208 |
| TAAGGATA | 0.191 |
| ATTATTCA | 0.231 |
| GCTGGGAA | 0.0395 |
| ATCTCTCA | 0.241 |
| TAAGTGTA | 0.139 |
| TTAGCCAA | -0.00909 |
| TAACAGAA | 0.212 |

| Sequence | PBM E-score |
| --- | --- |
| CGCACCCC | -0.273 |
| CGTTCGCA | -0.0102 |
| CCGGGTAG | 0.0639 |
| CGTAACGA | -0.0743 |
| ACTGCGGC | -0.0387 |
| TATCTTCA | 0.149 |
| CGGAATAG | 0.126 |
| CGGTTGCC | -0.0518 |
| AATGTTAG | 0.0264 |
| CACAAGCG | -0.127 |
| GCTCCTGA | -0.202 |
| GAGAGAAC | -0.0888 |
| CGCAGGGC | -0.114 |
| ACTGGAAT | 0.262 |
| ACGGCCAC | -0.0796 |
| ATGGTTGA | 0.0977 |
| CACAACTA | 0.211 |
| CTCACAAA | 0.21 |
| AATTCAGG | 0.09 |
| CGCGTGGC | -0.292 |
| GGTGCTAA | 0.108 |
| AATCAATG | 0.189 |
| AATCTACG | -0.0149 |
| GTGTGAGA | 0.0206 |
| CAGTGTAC | -0.0838 |

| Sequence | PBM E-score |
| --- | --- |
| TAACAATA | 0.273 |
| GATCTTGA | -0.00031 |
| AAGCGCCG | -0.027 |
| CCAACAAC | 0.00586 |
| GGACGAAA | -0.104 |
| AAAGTTGA | 0.116 |
| CCTCTACA | -0.166 |
| ATGTTTGG | -0.035 |
| AGGCTCAC | -0.218 |
| CACTTAAA | 0.104 |
| AGCATTTC | 0.106 |
| GACCCCCC | -0.327 |
| ATACTTCG | 0.0341 |
| CTTCGGAA | 0.243 |
| TAAAAGCA | 0.00415 |
| AGGCCACC | -0.229 |
| TCTTGGAA | 0.221 |
| AGAATAAT | 0.163 |
| CATAATAC | 0.0785 |
| TCAAAGAA | 0.141 |
| ATTCTAGC | 0.0909 |
| CAGATATG | -0.0501 |
| GTGGGTTA | -0.14 |
| ATACTAAT | 0.184 |
| GAAGGGTA | 0.121 |

| Sequence | PBM E-score |
| --- | --- |
| GCATTGGA | 0.0503 |
| GCCATGCC | -0.0922 |
| CATTACGC | -0.142 |
| ATGTGGGC | -0.0747 |
| CACAGCTA | -0.066 |
| CGATAGGA | 0.0895 |
| ACGGACGG | -0.225 |
| GCTCCAGA | -0.152 |
| AATCCCAC | 0.0588 |
| CGTCGCCC | -0.312 |
| CCCCAGCC | -0.152 |
| ATAAGCAT | -0.064 |
| CAAGATAC | 0.151 |
| CAGGTGGG | -0.0846 |
| ATGGAAGA | 0.268 |
| ATGTATAA | 0.0359 |
| AAGCGATG | -0.212 |
| TGGGCCAA | -0.142 |
| GAAAACAA | 0.115 |
| GGAGATTA | 0.148 |
| CTATCTCC | -0.0881 |
| AGCCGACA | -0.166 |
| TGAACGCA | 0.0921 |
| CGGTGATC | -0.194 |
| AATCTTCG | 0.0477 |

| Sequence | PBM E-score |
| --- | --- |
| ACGGCTGA | -0.132 |
| AATCCTCC | 0.0532 |
| CCTTCTTC | -0.064 |
| AGCGACAC | -0.0516 |
| AACTGTCG | 0.0332 |
| CTGGTAAG | 0.121 |
| ACATATTA | 0.349 |
| AAGAGGAA | 0.095 |
| AGGTTTGA | -0.0546 |
| ATGTGTGG | -0.00406 |
| GGCGGTAC | -0.334 |
| GATGCGCA | 0.0311 |
| TCAGCGCA | -0.129 |
| GGAGCGTA | 0.057 |
| ACAAATAT | 0.287 |
| TCTCTCAA | 0.238 |
| AGACAACA | -0.0111 |
| AAGACACC | -0.146 |
| ATTAGTCC | 0.203 |
| AAACTAAC | 0.274 |
| ACTCGTTA | 0.0584 |
| AGCACCGG | -0.174 |
| GGTGTAGA | -0.188 |
| GCCTGGCA | -0.354 |
| ATCTCCAC | 0.0486 |

| Sequence | PBM E-score |
| --- | --- |
| AATAAAAT | 0.304 |
| AAGCGTTC | -0.151 |
| GATTCCCA | -0.0759 |
| AGACATCT | -0.00752 |
| AGCATCCT | -0.0531 |
| ACAACCAA | 0.071 |
| GAGCATAC | 0.0668 |
| AAAGCTTA | 0.216 |
| AGTCCCAC | -0.134 |
| CGAATTCC | 0.11 |
| ATGCAATA | 0.164 |
| TCACTTCA | 0.049 |
| GCAACAAC | 0.104 |
| CGAAATAA | 0.264 |
| ACCGAAGT | -0.0837 |
| CGGACACA | -0.152 |
| GGGAGGAC | -0.278 |
| CCCTCAGA | -0.187 |
| ATGCCTCC | -0.146 |
| GAACCCCC | -0.372 |
| AATAGTCC | -0.0436 |
| AGACTATA | 0.0641 |
| AATTTCCT | 0.273 |
| CAGGATCC | -0.071 |
| TTAGAGAA | -0.134 |

| Sequence | PBM E-score |
| --- | --- |
| CGCTTGCC | -0.0791 |
| CACGGACG | -0.00234 |
| CAATTAAA | 0.224 |
| CGACGTCA | -0.161 |
| AGTAAACC | -0.0233 |
| ATCGTCAT | 0.0883 |
| CACTAACA | 0.14 |
| CGTTTCAC | -0.0986 |
| ACACGAAC | -0.079 |
| CCTTCAAC | 0.00095 |
| ACGACTGG | -0.11 |
| CCTGCCTC | -0.197 |
| CCCGTACG | -0.311 |
| CGGGGCAA | -0.0914 |
| CTAGAATC | -0.0344 |
| GCTTGGCC | -0.0835 |
| CTTTAAAG | 0.00135 |
| CATGTCAG | -0.199 |
| CTGTCACC | -0.15 |
| GAAGCCTA | -0.00724 |
| AGTTGACG | 0.127 |
| AGTGAGCC | -0.178 |
| GATCAAAC | 0.115 |
| CATCACTC | -0.0377 |
| TCAGCCCA | -0.126 |

| Sequence | PBM E-score |
| --- | --- |
| CAGAGTAC | -0.0472 |
| CACGCATA | -0.0608 |
| AGAATCTG | -0.00563 |
| GCTAAAAA | 0.0426 |
| ACGTCTTA | -0.0921 |
| CCGCGGCC | -0.226 |
| GACGGGCC | -0.415 |
| TAACTAAA | 0.135 |
| CGCTGCCG | -0.328 |
| AGCGTTTA | -0.0683 |
| TGCCTAAA | 0.0317 |
| CAACGCTG | -0.0341 |
| ACTAGGTG | -0.13 |
| AGCGCCCA | -0.213 |
| GTCCGCTA | -0.055 |
| GAAGTGAA | 0.155 |
| GCGCCGCA | -0.161 |
| ATTAGGTA | 0.207 |
| ATCTCCCA | -0.14 |
| GCATAGGA | -0.0355 |
| ATCTTACC | 0.0215 |
| GCGCATAA | -0.0124 |
| AATATCCT | 0.259 |
| ATCCGGTC | 0.12 |
| GTCCATAA | -0.176 |

| Sequence | PBM E-score |
| --- | --- |
| CCGGTCAG | -0.177 |
| GGGGCAAA | -0.286 |
| GCCGAAGA | -0.0625 |
| GCCTAGCA | -0.18 |
| ACTGCAAC | -0.0427 |
| GACATGTA | 0.217 |
| AAATGCCT | -0.0175 |
| CATCTAAA | 0.156 |
| CTCGGGCC | -0.182 |
| CAATGGAC | -0.0269 |
| ACTTAACT | 0.163 |
| CTGGGCTC | -0.0988 |
| GAGCGAAA | 0.174 |
| CGAGTCCA | -0.186 |
| CCCAGACC | -0.285 |
| ACCACAAC | 0.175 |
| ATTTAGCG | 0.0784 |
| GACTGCTA | -0.0825 |
| CCGCCCAG | -0.208 |
